# The campaign covered roughly 150,000 compounds. About 540 (0.36%) showed an effect of 50% or more. Some of the results follow.
# Test system: Plasmodium falciparum
# Assay: Primary screen in NF54 nanoGlo assay, in single point, at 2uM, 72h; a lower Z score goes with more inhibition
# Assay type: functional, Erythrocyte
# Conditions: timepoint 72 hour
SMILES,% Inhibition,Z score
Cc1cc(-c2nc(-c3ccccc3)nn2[C@H]2CCS(=O)(=O)C2)c(C)n1C,-10%,1.74
C=CCOc1cccc(NC(=O)N(C)C2c3cc(Cl)cc(Cl)c3CC2O)c1 (stereo unspecified),0%,-0.01
C=CCN(CC(=O)Nc1nc(-c2ccc(Cl)cc2)cn1-c1ccc(C)cc1)C(=O)c1ccccc1,9%,-1.1
Cc1c(Br)cc(C(=O)N[C@@H](CC(C)C)CN(C)C)c(=O)n1C,-1%,0.3
C[C@H]1C(=O)Nc2ccccc2CN1C(=O)Nc1cnnn1C,-10%,1.24
O=C(NCc1cccc(F)c1)N1CC[C@@]2(CCCN(CC3CC3)C2=O)C1,-12%,2.03
CC(C)(C)OC(=O)NCc1cccnc1NC(=O)Cc1ccoc1,10%,-1.94
Cc1c[nH]c(CNc2ncc(C(F)(F)F)cc2C)n1,-6%,1.04
C#CC1CCN(C(=O)c2cc(Cl)c3c(c2)OCCCO3)CC1,-11%,1.7
CCOC(=O)CC1(NCC(=O)N2CCC(C(=O)N3CCC[C@H](C)C3)CC2)CCCC1,-2%,0.41
CCCCn1nc(Cn2cncn2)nc1CN1CC[C@H](c2ccccc2)C1,-4%,0.67
C=C(C)CC(C)C(=O)N[C@@H]1CN(C(=O)OC(C)(C)C)C[C@@H]1O (stereo partly specified),-16%,2.08
COCc1ncc(C(=O)N2Cc3ncccc3N3CCC[C@H]3C2)s1,5%,-0.64
Cc1ccc(NCc2n[n+](CC(=O)c3ccccc3)c3n2CCCCC3)cc1,-40%,4.69
CCS(=O)(=O)N1C[C@@H]2CN(C(=O)c3cncc(C)c3)C[C@]2(c2nc(C)no2)C1,-22%,2.91
Cc1ccc(C(=O)N2[C@H](C(=O)NCc3ccc4c(c3)OCO4)COC23CCN(C(=O)c2ccccc2C)CC3)cc1,-5%,0.44
CCCc1nnc(N2CCC(CCN3CCCC3)CC2)o1,-9%,1.6
NC(=O)c1ccc(C(F)(F)F)n(C[C@H](O)c2cc(Cl)ccc2Cl)c1=O,37%,-5.52
CCc1cccc(S(=O)(=O)NC[C@H](O)C(=O)NC)c1,7%,-0.63
Cc1nnc(COC(=O)c2cc3ccc(C(C)(C)C)cc3[nH]2)o1,32%,-0.43
COc1cc(Br)ccc1CN1CC(C(N)=O)O[C@H](C)C1 (stereo partly specified),-2%,0.28
CN(CC(=O)N(c1nc2ccccc2o1)C1CC1)S(C)(=O)=O,1%,-0.06
CCNC(=O)N1CCc2nc(N3CCN(c4ccccc4F)CC3)nc(N(C)C)c2C1,-5%,0.65
N#CCCN(CCC#N)C(=O)c1cc(Cl)ccc1Cl,-9%,1.77
Cc1nc(NC2CCN(Cc3ccccc3)CC2)cc([C@H]2C[C@@H](O)C2)n1,-17%,1.64
O=C1Nc2ccccc2Oc2cc(N3CCCC3)c(S(=O)(=O)N3CCCC3)cc21,-10%,1.37
CC(C)CN1CC2(CCN(C(=O)Nc3cc(F)ccc3F)CC2)CC1=O,-19%,1.84

SMILES,% Inhibition,Z score
Cc1noc([C@H](C)N(C)Cc2cc(CN(C)C)cs2)n1,-4%,0.59
Cc1cncc(N2CCn3c(Cc4cccc(F)c4)nnc3C2)n1,-9%,1.65
Cc1ccc(CN2CCn3nnc(-c4nc(-c5ccsc5)no4)c3C2=O)cc1,-8%,1.11
COc1ccc(CN2C(=O)N[C@@H](CC(=O)N3CCc4ccccc4C3)C2=O)cc1OC,-2%,0.34
O=C1CC[C@@H](c2c[nH]c3ccccc23)N1Cc1ccccc1,2%,-0.26
CCc1cc(C(=O)N2CCC(n3cn[nH]c3=O)CC2)ccc1O,-1%,0.12
Cc1cc(CS(=O)(=O)Cc2ccc(F)cc2Cl)no1,-14%,2.21
Cc1cc(NC(=O)CN2CCC[C@H](Cc3nccn3C)C2)n(C)n1,7%,-0.96
CCN(Cc1nc(CCOC)no1)c1ccccc1Cl,-3%,0.3
COc1ccccc1CNC(=O)C1CCN(S(=O)(=O)c2cc(-c3noc(C)n3)sc2C)CC1,-24%,2.11
CCCOC[C@H]1CCN(C(=O)c2cnc[nH]2)C1,3%,-0.51
COc1cc(NC(=O)c2cc(C)n3nc(C)cc3n2)cc(-n2cnnn2)c1,-14%,1.52
COc1cc(C(=O)O[C@@H](C)c2ccccc2F)on1,0%,0.02
CC(C)N1C(=O)CN(C(=O)c2nc(-c3ccccc3)cs2)CC1(C)C,-5%,0.72
Cc1ncc(CN(C)C(=O)C2CCCCC2C(=O)N2CCCC2)s1 (stereo unspecified),-2%,0.23
CCc1cccc(/N=C(\NC(=O)c2ccccc2)N2CCN(c3ccccc3)CC2)c1,-1%,0.16
CCN(Cc1ccc(C)o1)Cc1cc2ccc(C)cc2[nH]c1=O,2%,-0.25
CN1CCN2C[C@@H](NC(=O)C(=O)CCc3ccccc3)C[C@H]2C1,-4%,0.64
COC1CCC(CCNC(=O)CN(C)C2CC2)CC1 (stereo unspecified),0%,0
O=C1NCCN(C(=O)Nc2ccc(CCc3ccccn3)cc2)[C@H]1CCO,1%,-0.09
O=C(c1ccc2ccccc2n1)N1CCN(C(c2ccccc2)c2ccccc2)CC1,-7%,1.03
CCC[C@H]1C(=O)NCCN1C(=O)N(CC)C(C)C,-12%,1.13
O=C(NCc1cccc(F)c1)N1CCC(n2cc(-c3ccccc3)nn2)CC1,-3%,0.56
Cc1ncc([C@H](C)NCCOc2ncc(Cl)cc2Cl)c(C)n1,-12%,1.09
Cc1nc(NC(=O)N[C@@H](C)Cc2cccs2)nn1C(C)C,-6%,0.52
CCc1ccccc1C(N)CNC(=O)N1CCCC(OC2CCC2)C1 (stereo unspecified),-15%,1.51

# — ChEMBL document CHEMBL4888484, “Replenishing the malaria drug discovery pipeline: Screening and hit evaluation of the MMV Hit Generation Library 1 (HGL1) against asexual blood stage Plasmodium falciparum ,using a nano luciferase reporter read-out” (2022)
